The full ranking holds about 33,000 sequences; the median of “E-score (-0.5 to 0.5)” is about -0.01, and the highest 2% start at about 0.26. The list shows a part of the results.
target: Ste12 (UniProt P13574); assay: PBM E-score (8-mer binding enrichment) (E-score (-0.5 to 0.5)); higher = stronger / more preferred TF binding; most listed sequences are background and not binding sites; details: protein concentration: 200 nM; construct: GST-DNA-binding domain
Method in brief: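 PURExpress in vitro transcription/translation supplied GST-tagged yeast transcription factors, either full-length or DNA-binding domain. Applied at about 100-200 nM to universal all-10-mer Agilent arrays double-stranded by primer extension, the bound protein was detected with fluorescent anti-GST. E-scores, modified Wilcoxon-Mann-Whitney statistics, were given by the Universal PBM Analysis Suite to ungapped eight-base words pooled with their reverse complements after masliner normalisation.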

Row | Sequence | PBM E-score
1 | CACCATCG | -0.197
2 | ACCCTCTC | -0.0383
3 | GTCCCTAA | -0.0199
4 | CTCGCAAA | 0.0535
5 | GACTGTAC | -0.307
6 | GCACAAAA | 0.165
7 | ACAATGCC | 0.0154
8 | ATAAAGGG | -0.0794
9 | GCCTTGCA | 0.129
10 | CCTCTAAA | 0.0468
11 | AGCATCTC | -0.0632
12 | AGCAGAGC | -0.177
13 | AGGACGTC | -0.0457
14 | CATAAGGC | -0.0753
15 | GGAAGCAA | -0.112
16 | GACACGGC | 0.0846
17 | ATCATTTA | 0.143
18 | ATTGCGCG | 0.152
19 | GAAACATC | 0.355
20 | GAATGCCC | -0.0216
21 | ATGTGGAG | 0.0113
22 | CACGCCCG | 0.092

Row | Sequence | PBM E-score
23 | CCAGATTC | -0.189
24 | TCGCAGCA | -0.0978
25 | ACCTAATC | 0.0677
26 | AAAGATAT | 0.273
27 | CTCCCAAG | -0.135
28 | GTCCTTCA | 0.0644
29 | ATGCCTGA | -0.13
30 | ATTAGCCC | -0.0329
31 | TCGCATAA | 0.174
32 | GTGATACA | 0.195
33 | CATCCGTC | 0.0324
34 | AGATTGCC | -0.0504
35 | CGACAATA | 0.183
36 | AGGTGCTG | -0.11
37 | AAAATTAG | 0.31
38 | AACGAGAC | -0.00626
39 | CATACAAA | 0.162
40 | AAACCCTG | 0.244
41 | CCCCAGCG | -0.0885
42 | CACTCGGG | -0.215
43 | TACCCCAA | 0.0124
44 | CTCACGTA | -0.196

Row | Sequence | PBM E-score
45 | AAGTTTAA | 0.0593
46 | AAAGGGTT | -0.00599
47 | CGAACGTC | -0.123
48 | ACATACAA | 0.13
49 | GACCTGCA | -0.0464
50 | AATACAGT | -0.0112
51 | AACAGCCA | -0.019
52 | CTCTAATA | 0.0155
53 | ACCTCGTG | -0.063
54 | CGAGTTCA | -0.00895
55 | AAGGATAC | -0.271
56 | GGGCCTAA | -0.236
57 | CCTTTACA | -0.103
58 | CCACGATA | 0.18
59 | ATGTCGTC | -0.178
60 | ACTTCGCC | 0.0833
61 | AAGGGTTC | -0.181
62 | ACTTATTG | 0.171
63 | ATTATGTG | 0.18
64 | AAACTGAA | 0.268
65 | ACGACCGG | -0.147
66 | TAACTGTA | 0.126

Row | Sequence | PBM E-score
67 | AGTTACGC | -0.184
68 | GCCACGAC | 0.0374
69 | AGTAGAGG | -0.264
70 | ATAGACGG | 0.0292
71 | AGCGAGAG | 0.0811
72 | CTGACCAG | -0.111
73 | GCACTGTA | 0.025
74 | CTACATCA | 0.0901
75 | TAGTATCA | 0.17
76 | GAAAGGAA | 0.0531
77 | AGGTGATG | -0.15
78 | CCATGGAA | -0.0422
79 | GTGTGGAA | 0.192
80 | CTCTGTTA | 0.141
81 | ATTGGAAC | 0.116
82 | AATGACCT | -0.0302
83 | AGGGTGAT | 0.053
84 | CGAATCGC | -0.00036
85 | CTCACCGC | 0.0432
86 | GCACCCGC | -0.0378

Reference: the supplement of paper PMC3334620
